Assay results published in the supplement of paper PMC9446081.
Out of some 39,000 compounds screened, about 220 (0.56%) showed activity. This is one part of the list.

test system: Escherichia coli K-12 BW25113; test: relative growth (OD600 normalised to plate interquartile mean) (fraction); higher = less growth inhibition, active = 0.2 or less; conditions: 50 µM; LB; incubation time: overnight (16-24 h)
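Further: static incubation at 37 °C against the wild-type strain, values averaged over two biological replicates.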

Structure (SMILES) | relative growth
Cc1ccc(S[C@]2(C(=O)NCCCN(C)C)CC(=O)N(C3CCCCC3)[C@@H]2c2ccc(CO)cc2I)cc1 | inactive: 1.01
CN1CCN(C(=O)C[C@@H]2C=C[C@@H](NC(=O)Nc3ccccc3F)[C@H](CO)O2)CC1 | inactive: 1.02
N/C(=N/O)c1cnc2n(c1=O)CCS2 | inactive: 0.994
N[C@@H]1c2ccccc2C[C@@H]1O | inactive: 0.995
C[C@H]1CN([C@@H](C)CO)C(=O)c2cccc(NS(=O)(=O)c3ccc(F)cc3)c2O[C@@H]1CN(C)Cc1ccc(-c2ccccc2)cc1 | inactive: 0.991
Cc1noc(C)c1S(=O)(=O)Nc1ccc2c(c1)C(=O)N([C@H](C)CO)C[C@@H](C)[C@H](CN(C)Cc1ccc3c(c1)OCO3)O2 | inactive: 0.968
COC(=O)/C=C1\N[C@H]2CCCC[C@@H]2NC1=O | inactive: 1.04
C[C@@H]1CCCCO[C@@H](CN(C)Cc2ccc3c(c2)OCO3)[C@H](C)CN([C@@H](C)CO)C(=O)c2cc(NC(=O)Nc3ccc(C(F)(F)F)cc3)ccc2O1 | inactive: 0.99
Cc1noc(C)c1NC(=O)Nc1ccc2c(c1)C(=O)N([C@H](C)CO)C[C@H](C)[C@H](CN(C)C(=O)C1CCCCC1)OCCCC[C@@H](C)O2 | inactive: 0.989
NNCCc1ccccc1 | inactive: 0.818
CCN(CC)C(=O)C1CCNCC1 | inactive: 0.977
Nc1ccc(NC(=O)CCN2CCOCC2)cc1 | inactive: 1.01
C[C@H]1CCCCO[C@@H](CN(C)Cc2ccncc2)[C@@H](C)CN([C@@H](C)CO)C(=O)c2cc(NC(=O)CCC(F)(F)F)ccc2O1 | inactive: 0.986
COc1ccc(NC(=O)N(C)C[C@@H]2OCCCC[C@@H](C)Oc3ccc(NC(=O)Nc4ccc5c(c4)OCO5)cc3C(=O)N([C@@H](C)CO)C[C@H]2C)cc1 | inactive: 0.997
C[C@H](CO)N1C[C@H](C)[C@@H](CN(C)C(=O)Nc2ccc(F)cc2)OCCCC[C@H](C)Oc2ccc(NC(=O)Cc3ccccc3)cc2C1=O | inactive: 1.03
Cc1cc2nc3c(=O)[nH]c(=O)nc-3n(C[C@@H](O)[C@@H](O)[C@@H](O)CO)c2cc1C | inactive: 1.01
CC(CCc1ccc(O)cc1)NCCc1ccc(O)c(O)c1.Cl (configuration not stated) | inactive: 1.09
CC(C)NC(=O)N(C)C[C@H]1Oc2ccc(NC(=O)NC3CCCCC3)cc2C(=O)N([C@H](C)CO)C[C@H]1C | inactive: 1.02
C[C@@H]1CN([C@@H](C)CO)C(=O)Cc2cc(NC(=O)Nc3ccccc3)ccc2O[C@H]1CN(C)S(C)(=O)=O | inactive: 0.99
Cc1noc(C)c1NC(=O)N(C)C[C@@H]1Oc2c(NC(=O)c3ccncc3)cccc2C(=O)N([C@@H](C)CO)C[C@@H]1C | inactive: 0.959
O=C(C[C@H]1CC[C@@H](NC(=O)c2ccc(F)cc2)[C@H](CO)O1)NCc1ccncn1 | inactive: 0.986

Structure (SMILES) | relative growth
C[C@H]1CCCCO[C@@H](CN(C)C(=O)Nc2ccc(C(F)(F)F)cc2)[C@@H](C)CN([C@@H](C)CO)C(=O)c2cc(NS(=O)(=O)c3ccc(F)cc3)ccc2O1 | inactive: 1.01
C[C@H]1CN([C@@H](C)CO)C(=O)c2cc(NC(=O)Cn3cnnn3)ccc2O[C@H]1CN(C)S(=O)(=O)c1ccc(Cl)cc1 | inactive: 1.01
CCCC(=O)N1CC[C@]2(CC1)CN([C@@H](CO)c1c2c2ccc(cc2n1C)OC)C(=O)CN1CCOCC1 | inactive: 1.02
COCC#Cc1ccc2c(c1)O[C@@H](CN(C)C(=O)c1ccccc1)[C@H](C)CN([C@@H](C)CO)S2(=O)=O | inactive: 1.04
C[C@@H]1CCCCO[C@H](CN(C)S(=O)(=O)c2cccs2)[C@@H](C)CN([C@H](C)CO)C(=O)c2cc(NC(=O)CCCCCC(=O)Nc3ccccc3N)ccc2O1 | inactive: 0.986
COc1cc(C(=O)NC2CCN(C)CC2)ccc1Nc1ncc2c(n1)N(C1CCC(O)CC1)CCC(=O)N2C (configuration not stated) | inactive: 1
C[C@@H]1CN([C@@H](C)CO)C(=O)c2cc(NC(=O)C3CCCCC3)ccc2O[C@@H](C)CCCCO[C@@H]1CN(C)C(=O)c1ccccc1 | inactive: 0.991
CCS(=O)(=O)Nc1ccc2c(c1)C(=O)N(C)[C@H]1CC[C@H](CC(=O)N[C@@H]3CCN(Cc4ccccc4)C3)O[C@H]1CO2 | inactive: 0.98
Cc1ccc(S(=O)(=O)N(C)C[C@@H]2Oc3ccc(NC(=O)C4CC4)cc3CC(=O)N([C@@H](C)CO)C[C@@H]2C)cc1 | inactive: 1.01
C[C@H](CO)N1C[C@H](C)[C@@H](CN(C)C(=O)Nc2cccc(F)c2)OCc2ccccc2-c2c(n(C)c3ccccc23)C1=O | inactive: 1.01
CC[N+](C)(CC)Cc1ccccc1 | inactive: 0.993
C[C@@H]1CN([C@@H](C)CO)C(=O)c2cc(NC(=O)Nc3ccccc3)ccc2O[C@@H](C)CCCCO[C@H]1CN(C)C(=O)Cc1ccccc1 | inactive: 1.02
C[C@@H]1CN([C@H](C)CO)C(=O)CCCn2nncc2CO[C@H]1CN(C)C(=O)Nc1ccnc(N2CCOCC2)c1 | inactive: 1
CC(=O)c1cccc(S(=O)(=O)N2[C@@H]3CC[C@@H](C3)[C@H]2c2nc3cccc(OCc4ccc(F)cc4)c3[nH]2)c1 | inactive: 0.997
C[C@@H](NC(=O)C[C@@H]1C=C[C@@H](NC(=O)CN2CCOCC2)[C@H](CO)O1)c1ccccc1 | inactive: 0.992
COc1ccc(C(=O)Nc2ccc3c(c2)C(=O)N(C)[C@H]2CC[C@H](CC(=O)NCC4CC4)O[C@H]2CO3)cc1 | inactive: 0.977
Cc1cn(CCC#N)c2ccccc12 | inactive: 0.983
CC(C)(O)c1cn(-c2ccc(-c3cccc(S(C)(=O)=O)c3)cc2)c(C(C)(C)c2ccccc2Cl)n1 | inactive: 1.04
C[C@@H]1CN([C@@H](C)CO)C(=O)c2cc(NC(=O)Cn3cnnn3)ccc2O[C@@H]1CN(C)Cc1ccccc1 | inactive: 1
Cc1ccc(S(=O)(=O)N(C)C[C@@H]2Oc3c(NC(=O)C4CCOCC4)cccc3C(=O)N([C@H](C)CO)C[C@H]2C)cc1 | inactive: 1.01
COc1ccc(S(=O)(=O)N(C)C[C@@H]2Oc3ccc(NC(=O)Cn4cnnn4)cc3C(=O)N([C@@H](C)CO)C[C@H]2C)cc1 | inactive: 1.03
